Source: PubChem BioAssay AID1794842 (National Center for Advancing Translational Sciences (NCATS), 2023)
Fewer than 10 of roughly 2,800 compounds were called active. Calls come from the whole dose curve; as a rule, active = well fitted curve in the direction sought with a large enough effect; inconclusive = small, poorly fitted or top-dose-only effect, or another doubt; inactive = no such curve, though single readings can be large or run the other way. This is one part of the list.
Note: % of control where 0% means no effect.

What follows are compounds tested against Metallo-beta-lactamase type 2 (Klebsiella pneumoniae) (UniProt C7C422) (assay: qHTS to identify inhibitors of the New Delhi Metallo-beta-lactamase (NDM): Meropenem screen against the machine-based learning selections.). Settings: Purified NDM-1, meropenem hydrolysis, absorbance 300 nm; at 38.4 µM (top of the series) unless noted.
Chain of UniProt C7C422 (C7C422 whole entry, looked up): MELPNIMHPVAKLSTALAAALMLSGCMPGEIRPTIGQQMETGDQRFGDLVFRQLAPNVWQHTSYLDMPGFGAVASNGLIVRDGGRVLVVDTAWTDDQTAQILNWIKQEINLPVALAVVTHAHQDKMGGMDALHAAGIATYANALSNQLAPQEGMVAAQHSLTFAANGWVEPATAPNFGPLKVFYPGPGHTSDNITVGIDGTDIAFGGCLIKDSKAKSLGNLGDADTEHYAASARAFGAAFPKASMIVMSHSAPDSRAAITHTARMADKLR
How it was run: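 Hydrolysis by 2 nM NDM-1 was followed by absorbance after >30 min compound preincubation in HEPES pH 7.0 buffer with 1 uM Zn2SO4. For nitrocefin (16.7 uM, 15 min, 485 nm) and meropenem (50 uM, 30 min, 300 nm), each substrate ran on separate plates.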
In the case of `O=C(NC[C@H]1OC[C@@H](NCc2cnc[nH]2)[C@@H]1O)C1CCCC1`, the activity change, negative = inhibition is reported as inactive: 10.9% [at 57.5 µM].
For `O=C(Cc1ccccc1)Nc1ccc([C@@H](O)[C@H]2COCC(=O)N2CC2CC2)cc1`, the activity change, negative = inhibition was inactive: -0.857% [at 57.5 µM].
`O=C(O)c1cc(Br)cc(S(=O)(=O)NCc2ccccn2)c1` was tested, and the activity change, negative = inhibition was inactive: 54.8%.
`COc1ccc2nc(C[C@@H]3C[C@@H](C(C)C)[C@H](CNC(=O)Nc4ccc(F)cc4)C=C3C)[nH]c2c1` was tested, and the activity change, negative = inhibition was inactive: 0.701%.
With `CC(C)CN(Cc1cccnc1)C1CN(S(=O)(=O)Cc2ccccc2F)C1` the activity change, negative = inhibition was inactive: 0.438%.
In the case of `COc1ccc(NC(=O)c2ccc3c(c2)N(C)C2CCCCN2C3=O)cc1Cl` (configuration not stated), the activity change, negative = inhibition is reported as inactive: 2.08%.
In the case of `COc1ccc2[nH]c(C(=O)N[C@H]3COC[C@H]3Cc3cc(C)no3)c(C)c2c1`, the activity change, negative = inhibition is reported as inactive: 10.9%.
In the case of `CC(C)C[C@@H]1N[C@H](C(=O)NC2CC2)Cc2cn(Cc3nccn3C)c3cccc1c23`, the activity change, negative = inhibition is reported as inactive: 5.79% [at 57.5 µM].
`O=C(c1ccsc1)N1CCCn2cc(-c3ccccc3F)nc21` was tested, and the activity change, negative = inhibition was inactive: 6.32%.
In the case of `Cc1cc(=O)[nH]c(NCCNC(=O)c2cccc(CCC(C)(C)O)c2)n1`, the activity change, negative = inhibition is reported as inactive: -1.06%.
In the case of `CCOc1cc(=O)n2c(c1C(=O)Nc1ccc(C)cc1)CCCC2`, the activity change, negative = inhibition is reported as inactive: -0.585%.
`Cc1nc(NCCc2ccn[nH]2)cc(C2CC(O)C2)n1` (configuration not stated) was tested, and the activity change, negative = inhibition was inactive: 0.665%.
In the case of `Cc1ccc(CN2CCC[C@H]2c2nc(-c3ccc(OC4CCCCC4)nc3)no2)cc1`, the activity change, negative = inhibition is reported as inactive: 0.899% [at 57.5 µM].
For `Cn1cnc2cc(-c3ccc(CO)cc3)cc(C(=O)NCc3cccnc3)c21`, the activity change, negative = inhibition was inactive: 15% [at 57.5 µM].
With `COc1ccc(-c2nnc([C@H]3CCN(c4ncccn4)C3)o2)cc1` the activity change, negative = inhibition was inactive: 1.6% [at 57.5 µM].
With `COc1ccc(CN2CCNc3cnc(Nc4cccnc4)cc3C2)cc1O` the activity change, negative = inhibition was inactive: 1.27% [at 57.5 µM].
For `Cc1cc(C)n(Cc2c(C(=O)NCC34CCC=C3N(C)C(=O)CC4)noc2C)n1` (configuration not stated), the activity change, negative = inhibition was inactive: -0.0133%.
In the case of `COc1ccc(C(=O)N2C[C@@H]3OCC(=O)N(CC4CC4)[C@@H]3C2)cc1`, the activity change, negative = inhibition is reported as inactive: 0.531% [at 57.5 µM].
For `CCN(CC)CC[C@H]1CN(C(=O)NC2CCCCC2)CC[C@H]1CC(=O)O`, the activity change, negative = inhibition was inactive: -0.852% [at 57.5 µM].
In the case of `Cc1cc(C)nc(N2CCN(C(=O)C3CC(=O)N(CC(C)C)C3)CC2)n1` (configuration not stated), the activity change, negative = inhibition is reported as inactive: 4.38%.
`O=C(Nc1cccc(-c2ccc(F)cc2)c1)C1CCCN(C(=O)c2cccnc2)C1` (configuration not stated) was tested, and the activity change, negative = inhibition was inactive: 1.68%.
For `Cc1noc(C)c1S(=O)(=O)N1C[C@@H](C(N)=O)[C@H](C2CCN(C)CC2)C1`, the activity change, negative = inhibition was inactive: 0.148%.
